Results: PubChem BioAssay AID686978 (National Center for Advancing Translational Sciences (NCATS), 2013)
Hit rate of the full screen: of about 420,000 compounds, about 64,000 (15%) were called active. Inconclusive results, whose numbers are uncertain, are shown with a selection of clear calls. Calls follow the shape of the dose curve; as a rule, active = well fitted inhibition curve with a large enough effect; inconclusive = small, poorly fitted or top-dose-only effect; inactive = flat fitted curve, though single readings scatter. No potency is given beside an inconclusive call; the fits are too rough.
% is scaled to controls: 0 for no effect and ±100 for the full control effect; potency is read from the fitted curve at half-maximal effect; tags tell the direction and shape of the fitted curve.

Assay: qHTS for Inhibitors of human tyrosyl-DNA phosphodiesterase 1 (TDP1): qHTS in cells in absence of CPT; also: nearly all actives have a fitted effect of over 55% in size
Details: DT40 Tdp1-/- hTDP1 cells, no CPT, ATP luminescence, 48 h; activity change, negative = growth inhibition: at 46.2 µM (top of the series) unless noted
Method in brief: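 DT40 Tdp1-/-;hTDP1 cells, no CPT (DMSO vehicle only), 400 cells/well; compounds pin-transferred; ≥48 hr, 37 °C; CellTiter-Glo 30 min RT dark, luminescence read.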
In the case of `Cc1ccc(C(O)c2ncc(-c3ccc(Cl)cc3)[nH]2)cc1` (stereo unspecified), the Potency is reported as inconclusive [inhibitor, single point].
With `Cc1nc2cccnc2n1C1CCN(C(=O)Nc2ccccc2)CC1` the “activity change, negative = growth inhibition” value was inactive: 0.223%.
For `COCCNc1oc(Cc2cccc3ccccc23)nc1C#N`, the Potency was inconclusive [inhibitor, single point].
For `Cc1cc(=O)[nH]c(-c2ccc(Cl)cc2)n1`, the “activity change, negative = growth inhibition” value was inactive: -18.1%.
In the case of `C(=N\Nc1nc(N2CCCCC2)nc(N2CCCCC2)n1)/c1c[nH]c2ccccc12`, the Potency is reported as active: 16.4 µM.
With `Cc1ccc(-c2noc(-c3ccc(NCc4cccnc4)c([N+](=O)[O-])c3)n2)cc1` the Potency was active: 5.17 µM.
In the case of `Cc1noc(C)c1S(=O)(=O)Nc1ccc2c(c1)C(=O)N([C@H](C)CO)C[C@H](C)[C@@H](CN(C)C(=O)Nc1ccc3c(c1)OCO3)O2`, the “activity change, negative = growth inhibition” value is reported as inactive: -8.34%.
With `O=c1c2oc3ccccc3c2n(Cc2ccc(F)cc2)c(=O)n1Cc1ccco1` the Potency was inconclusive [inhibitor, single point].
For `O=C(CN1CCN(C(=O)C2CCCO2)CC1)Nc1cc(Cl)ccc1Cl` (stereo unspecified), the “activity change, negative = growth inhibition” value was inactive: -7.12%.
For `Cc1cccc(C)c1OCC(=O)N/N=C/c1cccnc1`, the Potency was active: 14.6 µM.
With `Cc1ccc(C(NC(=O)NCCCN2CCOCC2)=C(Cl)Cl)cc1F` the Potency was active: 12.6 µM.
For `O=C(Cc1cccs1)NNC(=S)NC(=O)c1ccc(F)c(F)c1`, the Potency was inconclusive [inhibitor, single point].
For `CN(C)c1ccnc2sc(C(N)=O)c(N)c12`, the Potency was inconclusive [inhibitor, partial curve].
For `C/C(=N\NC(=S)NCCc1ccccc1)c1ccc(Cl)cc1`, the Potency was inconclusive [inhibitor, single point].
With `CCn1c(C)c(C)c2cc(C(=O)N3CCCC3)ccc21` the “activity change, negative = growth inhibition” value was inactive: 14.6%.
For `CCc1ccc(NC(=O)NCc2cccnc2)cc1`, the “activity change, negative = growth inhibition” value was inactive: 5.37%.
For `CC(Nc1cccc2ccccc12)C(=O)N/N=C/c1ccccn1` (stereo unspecified), the Potency was active: 20.6 µM.
In the case of `COc1ccc(/C=c2/sc3n(c2=O)C(c2ccccc2OC)C2=C(N=3)c3ccccc3CC2)cc1O` (stereo unspecified), the Potency is reported as active: 23.1 µM.
In the case of `CCN(CC)S(=O)(=O)c1cccc(NC(=O)c2ccc(SC)cc2OC)c1`, the Potency is reported as active: 7.31 µM.
For `CC1S/C(=N/N=C/c2ccco2)N(Cc2ccc(F)cc2)C1=O` (stereo unspecified), the Potency was inconclusive [inhibitor, partial curve, poor fit].
In the case of `COc1ccccc1N(C(=O)Cn1nnc2ccccc21)C(C(=O)NCc1ccco1)c1ccc(C)o1` (stereo unspecified), the Potency is reported as inconclusive [inhibitor, partial curve].
In the case of `Nc1ccc2ncccc2c1N`, the Potency is reported as inconclusive [inhibitor, partial curve].
For `COc1ccc(NC(=O)C(=O)N2N=C(C(C)C)CC2(O)C(F)(F)F)cc1` (stereo unspecified), the Potency was active: 5.01 µM.
With `Cc1ccc(NC(=O)COC(=O)CCC2CCCC2)cc1S(=O)(=O)N1CCOCC1` the “activity change, negative = growth inhibition” value was inactive: -27.9%.
With `c1nc2n(n1)C1=C(CCCC1)C1(CCCCC1)N2` the “activity change, negative = growth inhibition” value was inactive: -9.9%.
For `CCN(CC)S(=O)(=O)c1ccc(N2CC(C(=O)N3CCOCC3)CC2=O)cc1` (stereo unspecified), the “activity change, negative = growth inhibition” value was inactive: 3.36%.
In the case of `COc1ccc(CNS(=O)(=O)c2cc(Br)cc3c2N(C(C)=O)C(C)C3)cc1` (stereo unspecified), the Potency is reported as inconclusive [inhibitor, single point].
With `CCOC(=O)c1c(NS(=O)(=O)c2ccc(Br)cc2)sc2c1CCC2` the Potency was inconclusive [inhibitor, single point].
With `COc1ccccc1C(CNc1ccc(S(=O)(=O)N2CCCC2)cc1[N+](=O)[O-])N(C)C` (stereo unspecified) the Potency was inconclusive [inhibitor, single point].
In the case of `Cc1cc(C)c(C#N)c(SCc2ccccc2[N+](=O)[O-])n1`, the Potency is reported as inconclusive [inhibitor, partial curve, poor fit].
With `Cc1nn(-c2ccccc2)c(Cl)c1/C=N/NC(=O)c1[nH]ncc1Br` the Potency was inconclusive [inhibitor, single point].
For `CSCCC(NC(=O)c1ccc([N+](=O)[O-])cc1Cl)C(=O)OCC(=O)NCC(F)(F)F` (stereo unspecified), the “activity change, negative = growth inhibition” value was inactive: 13.5%.
In the case of `Cc1nc2cc(C(F)(F)F)ccc2n1CCNc1nc(-c2ccc(F)cc2)cs1`, the Potency is reported as inconclusive [inhibitor, single point].
For `COc1cc(CNCc2ccc(SC)cc2)cc(OC)c1`, the Potency was inconclusive [inhibitor, single point].
With `O=C(CN1CC[n+]2c(-c3cccs3)csc21)c1ccc(-c2ccccc2)cc1` the Potency was active: 8.2 µM.
For `Cc1ccc(-n2cnc3cc(C(=O)NCc4ccc(F)cc4)ccc32)c(C)c1`, the Potency was inconclusive [inhibitor, single point].
For `N#CC1=C(N)NC(=S)C(C(N)=O)C1c1ccccc1F` (stereo unspecified), the Potency was inconclusive [inhibitor, single point].
For `CC[C@@H](C)[C@@H]1CN([C@@H](C)CN2CCC[C@H]2CN2C(N)=NC[C@H]2CC(C)C)C(=N)N1CCCC1CCCC1`, the Potency was active: 23.1 µM.
In the case of `Cc1ccc(OC(C)C(=O)N2CCN(CCc3ccncc3)CC2)cc1C` (stereo unspecified), the Potency is reported as inconclusive [inhibitor, single point].
In the case of `COc1ccc(NC(=O)c2cc(S(=O)(=O)N3CCCCC3)ccc2N2CCCCC2)cn1`, the Potency is reported as inconclusive [inhibitor, single point].
In the case of `CCOC(=O)c1cccc(NS(=O)(=O)c2ccc3[nH]c4c(c3c2)CCCC4)c1`, the Potency is reported as inconclusive [inhibitor, single point].
With `O=C(NCCC1=CCCCC1)C(=O)c1c[nH]c2ccccc12` the Potency was inconclusive [inhibitor, single point].
In the case of `C=CCOC(=O)C1=C(C)NC(SCC(=O)Nc2nccs2)=C(C#N)C1c1cccs1` (stereo unspecified), the Potency is reported as inconclusive [inhibitor, single point].
With `Cn1cc(CN2CCC(C(=O)Nc3cccc(-c4cccc(F)c4)c3)CC2)cn1` the Potency was inconclusive [inhibitor, single point].
For `CCc1noc(C)c1C(=O)N(C)CC(=O)Nc1ccc(OC)cc1`, the “activity change, negative = growth inhibition” value was inactive: -0.595%.
For `Cc1cc(C)c2[nH]c(=O)c(C(c3nnnn3Cc3ccc4c(c3)OCO4)N3CCC(C)CC3)cc2c1` (stereo unspecified), the Potency was active: 16.4 µM.
